To fix the notation:
B1: Ydj1; a variant is named by its letters at X, in order (parent)
chain: MVKETKFYDILGVPVTATDVEIKKAYRKCALKYHPDKNPSEEAAEKFKEASAAYEILSDPEKRDIYDQFGEDGLSGAGGAGGFPGGGFGFGDDIFSQFFGAGGAQRPRGPQRGKDIKHEISASLEELYKGRTAKLALNKQILCKECEGRGGKKGAVKKCTSCNGQGIKFVTRQMGPMIQRFQTECDVCHGTGDIIDPKDRCKSCNGKKVENERKILEVHVEPGMKDGQRIVFKGEADQAPDVIPGDVVFIVSERPHKSFKRDGDDLVYEAEIDLLTAIAGGEFALEHVSGDWLKVGIVPGEVIAPGMRKVIEGKGMPIPKYGGYGNLIIKFTIKFPENHFTSEENLKKLEEILPPRIVPAIPKKATVDECVLADFDPAKYNRTRASRGGANYDSDEEEQGGEGVQCXXX

This is a noisy data set.

The variants in this data set derive from B1. As to the kind of experiment: enrichment factor, frequency at 37 °C / frequency at 25 °C (thermotolerance selection) (ratio); higher = more growth at 37 °C, higher likelihood of farnesylation. The following applies: with Saccharomyces cerevisiae ydj1Δ (yWS304); selective temperature 37 °C; reference temperature 25 °C.
As to WYD, the enrichment factor came to 1.16.
As for WYM, the figure is 1.01; as for WYN, 1.41.
As for WYH, the figure is 1.9; as for WYK, 0.252; as for WWV, 1.16.
Next, WWY: 0.657; WWW: 1.75.
On to WWT, for which the enrichment factor turned out to be 1.42.
Next, NYK: 0.165.
NYF: the enrichment factor turned out to be 1.54.
In the case of NYP, the enrichment factor was determined as 0.099.
Turning to NYG, the enrichment factor was 1.74.
As for NYN, the figure is 2.29.
In the case of NYM, the enrichment factor is 1.93.
Consider NYI, for which the enrichment factor worked out at 1.43.
NYD: the enrichment factor stood at 0.108.
As for NYE, the figure is 1.58; as for NYA, 2.32.
Next, NYH: 0.949; NYL: 0.929.
Consider NYC, for which the enrichment factor was found to be 0.915.
As for KWY, the figure is 1.05.
Next, KWV: 1.12; KWT: 1.59; KWW: 0.879.
Next, CYH: 1.57.
Consider CYE, for which the enrichment factor is 2.07.
Next, CYA: 0.869; CYN: 1.69; CYD: 0.547.
Next, CYL: 0.141.
CYM: the enrichment factor amounted to 0.711.
Next, CYC: 0.502; CYK: 0.251; CYI: 0.386.
As for CYG, the figure is 1.16; as for CYP, 0.797.
As for CYF, the figure is 0.307; as for HWT, 2.7; as for HWW, 0.616.
Take HWV: the enrichment factor worked out at 3.05.
Next, HWY: 0.825; EYD: 0.496.
Next, EYE: 1.53.
For EYP, the enrichment factor amounted to 0.15.
Next, EYC: 1.58.
As for EYL, the enrichment factor stood at 1.3.
Consider EYA, for which the enrichment factor worked out at 1.95.
As for EYN, the figure is 1.62; as for EYH, 1.56.
Next, EYI: 1.45.
As for EYF, the figure is 1.25; as for EYK, 0.228; as for EYM, 1.1.
Regarding EYG, the enrichment factor was found to be 1.75.
On to LWV, for which the enrichment factor came to 1.49.
Next, LWW: 1.12; LWY: 1.16; LWT: 0.951.
For NWY, the enrichment factor worked out at 0.849.
Next, NWW: 0.842; NWV: 1.2; NWT: 2.76.
As for TWY, the figure is 1.68; as for TWT, 5.07.
As for TWV, the figure is 0.802; as for TWW, 1.51.
In the case of FYK, the enrichment factor was 0.188.
In the case of FYH, the enrichment factor was found to be 0.921.
As for FYG, the figure is 1.61.
As for FYL, the figure is 1.07; as for FYE, 0.544; as for FYC, 1.21.
Next, FYM: 0.515; FYN: 1.43.
Take FYA: the enrichment factor was 2.61.
Next, FYI: 1.53; FYD: 0.471.
Next, FYP: 1.14.
Next, FYF: 1.34.
Take LYH: the enrichment factor was 1.41.
Regarding LYD, the enrichment factor was 0.645.
Next, LYG: 1.56.
